Assay results: PubChem BioAssay AID624417 (National Center for Advancing Translational Sciences (NCATS), 2012)
Several values for one entry are separate records, joined by “and”; a condition that tells them apart may be missing. Identical values can stand only once. Hit rate of the full screen: of about 410,000 compounds, about 6,400 (1.6%) were called active. The inconclusive results got no clear call from the source; some entries with a clear call stand among them for comparison. Calls come from the whole dose curve; as a rule, active = well fitted inhibition curve with a large enough effect; inconclusive = small, poorly fitted or top-dose-only effect; inactive = no such curve, though single readings can be large or run the other way. A potency beside an inconclusive call is a rough fit, not a confirmed value.

target: Glucagon-like peptide 1 receptor (Homo sapiens) (UniProt P43220); test: qHTS of GLP-1 Receptor Inverse Agonists (Inhibition Mode); details: HEK293 GLP-1R CRE-luciferase, luminescence, 24 h, GLP-1R form is constitutively active; activity change, negative = inhibition: at 38.3 µM (top of the series) unless noted; note: nearly all actives have a fitted effect of over 55% in size
In short: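 GLP-1R inverse agonism mode: basal reporter luminescence in engineered HEK293 cells measured after one day of compound exposure at 37 deg C, with a 12 min room-temperature detection step.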
% is set by controls: 0 for no effect and ±100 for the full control effect; potency is the fitted concentration of half-maximal effect; tags give direction and shape of the fitted curve.

UniProt P43220, sequence (P43220 whole entry, looked up): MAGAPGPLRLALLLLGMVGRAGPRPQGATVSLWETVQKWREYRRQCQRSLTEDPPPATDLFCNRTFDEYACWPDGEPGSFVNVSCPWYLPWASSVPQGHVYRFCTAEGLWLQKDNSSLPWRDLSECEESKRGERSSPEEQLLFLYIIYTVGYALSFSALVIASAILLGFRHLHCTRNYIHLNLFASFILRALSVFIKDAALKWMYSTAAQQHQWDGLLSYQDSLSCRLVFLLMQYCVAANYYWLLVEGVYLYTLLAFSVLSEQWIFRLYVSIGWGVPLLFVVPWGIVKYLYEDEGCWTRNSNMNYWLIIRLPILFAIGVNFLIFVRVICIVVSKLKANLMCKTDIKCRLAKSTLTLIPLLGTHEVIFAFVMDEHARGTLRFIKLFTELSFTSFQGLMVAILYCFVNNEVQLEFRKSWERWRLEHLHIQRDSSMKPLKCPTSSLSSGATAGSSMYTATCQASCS

Potency, inactive:
Cc1cc(C)cc(NC(=O)C2C3C=CC4(O3)C2C(=O)N(CCN2CCCCC2)C4C(=O)NC2CCCCC2)c1 (stereo not drawn), O=C(c1ccc(F)cc1)N1CCN(Cc2ccccc2)CC1, CC(C(=O)NCc1ccco1)n1nc(-c2ccccc2)c2cc(Cl)ccc21 (stereo not drawn), O=C(c1ccco1)N1CCN(S(=O)(=O)Cc2ccccc2Cl)CC1, O=C(c1ccc(Cn2cc(Br)cn2)o1)n1cccn1, CC(C)Cc1nnc(NC(=O)Cc2cccs2)s1, CN(Cc1ccccc1)C(=O)c1ccccc1Br, CN(CCNC(=O)c1ccc(/C=N/O)nc1)Cc1ccccc1, COc1cccc(NC(=O)c2oc3ccccc3c2NC(C)=O)c1, Cc1ccc(-c2nnc(-c3ccccc3)c(N3CCOCC3)n2)cc1, CCOC(=O)c1ccc(NC(=O)CSc2cc(-c3ccccc3)nc(C)n2)cc1, O=C1CC(c2ccccc2)Cc2[nH]c(=O)c(C(=O)Nc3ccc(F)cc3)cc21 (stereo not drawn)

Potency, active:
CC(C)SC1=NC(C)(C)C=C(/C=C/c2c(Cl)cccc2Cl)N1 2.82 µM

Potency, inconclusive:
O=C(c1cccc(C(F)(F)F)c1)C1CCCN(C(=O)c2cc(C3CC3)[nH]n2)C1 (stereo not drawn) 12.6 µM [inhibitor, partial curve], COc1ccccc1Cc1nc(-c2ccc(C)cc2)no1 28.2 µM [inhibitor, single point], c1ccc(N=NC2=NN(c3ccccc3)CS2)cc1 7.94 µM [inhibitor, partial curve, poor fit], Oc1cccc(/C=N/N(Cc2ccccc2)c2ccccc2)c1 10 µM [inhibitor, partial curve, poor fit], CC(C)SC1=NC(C)(C)C=C(/C=C/c2ccc(Cl)cc2Cl)N1 10 µM [inhibitor, partial curve, poor fit], Cc1noc(C)c1C1(O)CCCCCCCCCCC1 10 µM [inhibitor, partial curve, poor fit], O=C(Nc1cccc(Cl)c1)C(Cc1ccccc1)n1cccc1 (stereo not drawn) 31.6 µM [inhibitor, partial curve, poor fit], COc1cccc2sc(N(Cc3cccnc3)C(=O)C3CCCCC3)nc12 15.8 µM [inhibitor, single point], Brc1ccc2c(c1)C(c1cccnc1)=NNC(c1cccs1)=N2 14.1 µM [inhibitor, single point], Cc1ccc(S(=O)(=O)NCc2ccc(C(=O)NCCCN3CCC(Cc4ccccc4)CC3)cc2)cc1 31.6 µM [inhibitor, single point], CC(Oc1ccc(Br)cc1)C(=O)Nc1nc(-c2ccccn2)cs1 (stereo not drawn) 10 µM [inhibitor, partial curve, poor fit], Cc1ccc(NC(=S)NCCc2ccccc2)nc1 3.16 µM [inhibitor, full curve, poor fit], O=C(CN1CCC(C(=O)c2ccc(F)cc2)CC1)Nc1ccccc1Cl 12.6 µM [inhibitor, partial curve, poor fit], CCCNC(=O)C1(C)CCN(CCOc2ccc(Cl)cc2)C1 (stereo not drawn) 28.2 µM [inhibitor, single point], Cc1ccc(NC(=O)C(c2ccccc2)N2CCN(C(=O)c3ccco3)CC2)cc1Cl (stereo not drawn) 11.2 µM [inhibitor, partial curve, poor fit], CN(C)CCCN(C(=O)COc1ccc(Cl)cc1)c1nc2cc3c(cc2s1)OCO3 8.91 µM [inhibitor, partial curve, poor fit], CN1CCN(S(=O)(=O)c2ccc(Br)c3ccccc23)CC1 28.2 µM [inhibitor, single point], COc1cc(CN2CCCC(CO)(Cc3ccccc3C)C2)cc2c1OCO2 (stereo not drawn) 11.2 µM [inhibitor, single point], CC(C)CC(=O)Nc1nnc(S(=O)(=O)N(C)c2ccc(Cl)cc2)s1 17.8 µM [inhibitor, partial curve, poor fit] and 10 µM [inhibitor, partial curve, poor fit], CC(C)(C)CC(C)(C)NC(=S)NC1CCN(Cc2ccccc2)CC1 11.2 µM [inhibitor, partial curve, poor fit], COc1ccc(-c2nc3ccccc3[nH]2)cc1 12.6 µM [inhibitor, single point], CCN(CC)S(=O)(=O)c1ccc(NC(=O)C2CCCN(C(=O)c3ccc(Cl)cc3)C2)cc1 (stereo not drawn) 22.4 µM [inhibitor, single point], CCN(CC(O)c1cccc(O)c1)C(=O)C12CC3CC(CC(C3)C1)C2 (stereo not drawn) 15.8 µM [inhibitor, single point], COc1ccc(NC(=O)c2sc(=O)n(Cc3cccc(C(F)(F)F)c3)c2C)cc1OC 1.26 µM [inhibitor, full curve], COc1cccc(CNC(=O)CN2C(=O)NC(c3ccccc3)(c3ccccc3)C2=O)c1 10 µM [inhibitor, partial curve, poor fit], O=C(NC(c1cccnc1)c1ccc2c(c1)OCO2)C1CCN(CCOc2ccc(Cl)cc2Cl)CC1 (stereo not drawn) 12.6 µM [inhibitor, single point], Fc1ccc(C2CCCN2Cc2nc(CC3CC3)no2)cc1 (stereo not drawn) 14.1 µM [inhibitor, single point], Cc1ccc([N+](=O)[O-])c2c1C(N1CCCCC1)C(C)(C)O2 (stereo not drawn) 0.501 µM [inhibitor, full curve, poor fit], Cc1ccc(C)c(-c2csc(-c3cccnc3)n2)c1 28.2 µM [inhibitor, single point], COc1ccc(CCNC(=O)c2cc(-c3ccccc3)c(N3CCOCC3)s2)c(OC)c1OC 11.2 µM [inhibitor, partial curve, poor fit], Cc1ccc(C(=O)Nc2ccc(C(=O)N/N=C/c3ccc(C)o3)cc2)cc1 3.98 µM [inhibitor, partial curve], C=C1CCN([C@@H](CC(C)C)C(=O)NCc2ccccc2)S(=O)(=O)c2ccccc21 10 µM [inhibitor, partial curve, poor fit], COC(=O)C1(CC2CC(c3ccccc3)=NO2)CCN(C(=O)OC(C)(C)C)CC1 (stereo not drawn) 22.4 µM [inhibitor, single point], CSc1ccc(/C=N/NC(=O)c2cccc(Cl)c2)cc1 5.62 µM [inhibitor, partial curve, poor fit], Cc1ccc(N(C)S(=O)(=O)c2c(C)noc2/C=C/N(C)C)cc1 28.2 µM [inhibitor, single point], COC(=O)[C@]12CCCCC=C1N(Cc1ccc(Cl)cc1Cl)C(=O)[C@H](CC(=O)N1CCCC1)C2 28.2 µM [inhibitor, partial curve, poor fit], Cc1ccc2nc(-c3ccccn3)c(N)n2c1 6.31 µM [inhibitor, partial curve, poor fit], COc1cccc(-c2cc(C(=O)N3CCCCCC3)no2)c1 11.2 µM [inhibitor, partial curve, poor fit], CN(CC(=O)Nc1ccccc1Cl)C(=O)CN1C(=O)NC(c2ccccc2)(c2ccccc2)C1=O 20 µM [inhibitor, single point], O=C(CN1CCN(S(=O)(=O)c2ccc(Cl)s2)CC1)NCc1ccc(Cl)cc1 12.6 µM [inhibitor, single point], CN(C)c1ccc(C(=O)N/N=C/c2cc(Br)cc(Br)c2O)cc1 2 µM [inhibitor, full curve, poor fit], Cc1c(C(=O)N2CCCCCC2)c(S(=O)(=O)Nc2ccc(OC(F)(F)F)cc2)c(C)n1C 28.2 µM [inhibitor, single point], CCOc1ccc(S(=O)(=O)N2CCCC(C(=O)N3CCN(c4ccccc4)CC3)C2)cc1 (stereo not drawn) 28.2 µM [inhibitor, single point], CCc1noc(C)c1C(=O)Nc1ccc(C)c(S(=O)(=O)N2CCCCCC2)c1 10 µM [inhibitor, partial curve, poor fit], CCOC(=O)N1CCN(C(=O)Cn2nc(-c3ccc(Cl)cc3)ccc2=O)CC1 10 µM [inhibitor, partial curve, poor fit], O=C(Nc1ccccc1N1CCCCC1)c1cccc(F)c1 22.4 µM [inhibitor, single point], CC(NC(=O)c1ccccc1Br)C1CC2CCC1C2 (stereo not drawn) 28.2 µM [inhibitor, single point], CN(CC(O)Cn1c2ccccc2c2ccccc21)S(C)(=O)=O (stereo not drawn) 8.91 µM [inhibitor, partial curve, poor fit], CCOC(=O)C(C)Oc1cccc2c(=O)n(CC(=O)NCc3ccc4c(c3)OCO4)ccc12 (stereo not drawn) 2 µM [inhibitor, full curve, poor fit]

Activity change, negative = inhibition, inconclusive:
COc1ccc(Nc2nc(-c3ccccc3O)nc3ccccc23)cc1 -82.4% [inhibitor]
